Measurements as given in a compilation of properties of binary mixtures (doi:10.1021/je901058s).
The densities may have been worked out from excess volumes.

Experiment: xn = mol fraction of the nth substance listed
Settings: 101 kPa

CCCCCCCCn1cc[n+](C)c1.O=[N+]([O-])[O-] + CCCCO
mass density [kg/m3]
Settings | 283.15 K | 288.15 K | 293.15 K | 298.15 K | 303.15 K | 308.15 K | 313.15 K | 318.15 K | 323.15 K | 328.15 K
x2 = 0.168 | – | 1052.5 | 1049.3 | 1046.2 | 1043 | 1039.9 | – | 1033.8 | 1030.8 | 1024.7
x2 = 0.261 | 1043.9 | 1040.6 | 1037.4 | 1034.2 | 1031.1 | 1028 | 1024.9 | 1021.8 | 1018.7 | 1012.6
x2 = 0.358 | 1029.8 | 1026.4 | – | 1019.9 | 1016.8 | – | – | – | 1004.1 | 997.9
x2 = 0.458 | 1012.7 | 1009.2 | 1005.9 | – | – | 996.2 | 993 | 989.8 | – | –
x2 = 0.57 | 989.6 | 986.1 | – | – | 976.1 | 972.8 | 969.4 | 966.2 | – | 956.1
x2 = 0.676 | 962.6 | 959.1 | – | 952.4 | – | – | 942.1 | 938.7 | – | 928.4
x2 = 0.754 | 938.4 | 935 | 931.5 | 928 | 924.5 | 921.1 | 917.6 | 914.2 | 910.6 | 903.5
x2 = 0.848 | 902.2 | 898.7 | – | – | 888 | 884.4 | 880.8 | 877.2 | – | 866.4

CCCCCCCCn1cc[n+](C)c1.O=[N+]([O-])[O-] + CCCO
mass density [kg/m3]
Settings | 283.15 K | 288.15 K | 293.15 K | 298.15 K | 303.15 K | 308.15 K | 313.15 K | 318.15 K | 323.15 K | 328.15 K
x2 = 0.107 | 1064.8 | 1061.4 | 1058.3 | 1055.1 | 1052 | 1048.8 | 1045.8 | 1042.7 | 1039.7 | 1033.6
x2 = 0.258 | 1048.9 | – | 1042.3 | 1039.1 | – | 1032.9 | 1029.7 | – | 1023.5 | 1017.3
x2 = 0.364 | 1035.1 | 1031.6 | 1028.5 | 1025.3 | – | 1019 | 1015.8 | 1012.4 | 1009.3 | 1003
x2 = 0.47 | 1018.5 | 1015.1 | – | 1008.6 | 1005.4 | 1002.2 | – | 995.6 | 992.3 | 985.8
x2 = 0.556 | 1002.2 | – | – | 992.3 | 988.9 | – | 982.3 | 978.9 | 975.6 | –
x2 = 0.671 | 975 | 971.6 | – | 964.8 | 961.3 | 957.9 | – | – | 947.7 | 940.9
x2 = 0.756 | 949 | 945.5 | 942 | 938.4 | 935 | 931.4 | 927.9 | 924.4 | 920.9 | 913.8
x2 = 0.866 | 902.9 | 899 | 895.3 | – | 887.9 | 884.3 | 880.6 | 876.8 | 873.1 | 865.6

CCCCCCCCn1cc[n+](C)c1.O=[N+]([O-])[O-] + CCO
mass density [kg/m3]
Settings | 283.15 K | 288.15 K | 293.15 K | 298.15 K | 303.15 K | 308.15 K | 313.15 K | 318.15 K | 323.15 K | 328.15 K
x2 = 0.128 | 1065.1 | 1061.6 | 1058.4 | 1055.3 | 1052.1 | 1048.9 | 1045.8 | – | 1039.7 | –
x2 = 0.266 | 1053 | 1049.6 | 1046.4 | 1043.3 | 1040.1 | 1036.8 | 1033.7 | 1030.6 | 1027.4 | 1021.3
x2 = 0.357 | 1043 | – | 1036.5 | 1033.4 | 1030 | 1026.7 | 1023.6 | – | 1017.2 | –
x2 = 0.455 | 1030 | 1026.7 | – | 1020.4 | 1016.9 | 1013.6 | 1010.5 | – | 1003.8 | 997.4
x2 = 0.554 | – | 1010.7 | 1007.5 | 1004.3 | – | 997.2 | 994 | 990.4 | 987.1 | –
x2 = 0.662 | 991.6 | 988.3 | 985 | 981.8 | 977.9 | 974.3 | 970.8 | 967.1 | 963.7 | 956.8
x2 = 0.767 | 961.3 | 957.9 | – | – | – | 943.1 | – | 935.4 | 931.8 | 924.4
x2 = 0.868 | 915.7 | – | 908.1 | 904.8 | 900.3 | 896.3 | 892 | 888 | 883.9 | 876.1
